# Read counts are not given, so values of variants with three or more changes are uncertain.
# B1: CPEB3 Ribozyme (parent)
# chain: UAACAGGGGGCCACAGCAGAAGCGUUCACGUCGCAGCCCCUGUCAGAUUCUGGUGAAUCUGCGAAUUCUGCUGUAUAUCUC
# Variants of: B1
# Test: self-cleavage, relative activity (ratio to wild type); higher = more cleavage; in vitro, sequencing
# Method in brief: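 For each CPEB3 ribozyme variant, relative activity is its cleaved/total read fraction divided by the unmutated ribozyme's. Barcoded error-prone PCR libraries were transcribed by T7 RNA polymerase (5 hours, 37°C) and held in DNase I for 15 min before an EDTA stop, with cleavage occurring throughout. Template-switching reverse transcription and Illumina sequencing were used to read the RNAs. A 5-read minimum applied, and results are the mean of three batches.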
row,Variant,self-cleavage
1,U26A A28G C40G A64G,0.06
2,U26A A28G G36A U41A U49C U67C,0.05
3,U26A A28G U31C U66C,0.14
4,U26A A28G U72A,0.08
5,U26A A28U A35C A45G,0.21
6,U26A A28U A65G,0.27
7,U26A A28U C29G U31C A35G,0.2
8,U26A A28U U43C A45G,0.07
9,U26A A35C A45G C62A U74C,0.09
10,U26A A35C U54C C62U,0.11
11,U26A A35G C40U U48C U54C A57G,1.27
12,U26A A35G G42A U74C,0.42
13,U26A A35G U54C,1.16
14,U26A A35U G46U U58C A75G U78A,0.06
15,U26A A45C U51A,0.2
16,U26A A45G A47G U74C U80C,0.57
17,U26A A45U U49C U76A,0.05
18,U26A A45U U72A,0.21
19,U26A A47G U49C U80C,0.29
20,U26A A47U A56G A77G,0.12
21,U26A A47U A57G G63U U67C C71U,0.03
22,U26A A56G U67C,0.39
23,U26A A57G U66G,0.39
24,U26A C29G A77G U80C,0.13

row,Variant,self-cleavage
1,U26A C29U A35U U48G U67A U72A,0.06
2,U26A C32A A35G U49A U51C,0.14
3,U26A C34G A65U U69C U78C,0.07
4,U26A C37A U41A U51A A57G U58C,0.09
5,U26A C37A U54C,0.11
6,U26A C40A G55U U69C,0.11
7,U26A C40U G46U U58C,0.07
8,U26A C40U U48C U80G,0.29
9,U26A C50A A57G,0.3
10,U26A C50U A64G U67A U69A G73A A75G,0.16
11,U26A C59A U60C,0.12
12,U26A G30A G61A,0.06
13,U26A G33A A35G U49A C50U,0.22
14,U26A G42C A45G,0.14
15,U26A G55A G63U,0.56
16,U26A U31A A64G U69A,0.13
17,U26A U31A C34G U69C U72C,0.14
18,U26A U31C A35G U60C,0.38
19,U26A U31C A45G U54A,0.54
20,U26A U31C A45G U54A U66C,0.14
21,U26A U31C A57G,0.37
22,U26A U41A A45U G61A U72C,0.13
23,U26A U41A U48C U51C U60A,0.1
24,U26A U41C A45U A56G,0.25

row,Variant,self-cleavage
1,U26A U41C A47G A57C,0.18
2,U26A U41C A47G A75G U80C,0.27
3,U26A U41C A56U U67C,0.14
4,U26A U41C A56U U69A,0.16
5,U26A U41C U51C,0.74
6,U26A U41C U69A,0.32
7,U26A U41G A45G,0.24
8,U26A U43A U49C A64U,0.1
9,U26A U43C A56G A65G,0.16
10,U26A U48A U54A A64G U78C,0.14
11,U26A U48C A64G U69C,0.26
12,U26A U48C U49C U74G A75U U78C,0.31
13,U26A U49C A56G U72C,1.1
14,U26A U49C U78A,0.28
15,U26A U51A U76A,0.76
16,U26A U51C A65G,0.62
17,U26A U51C U54C,0.77
18,U26A U51C U58A,0.11
19,U26A U54A A57G,0.71
20,U26A U54C U60A,0.82
21,U26A U54C U80C,0.94
22,U26A U58C U72C U80C,0.41
23,U26A U66A U67C A75G U78C,0.05
24,U26A U66C C71A U74G,0.17

row,Variant,self-cleavage
1,U26A U66C U80C,0.57
2,U26A U67C G73A,0.34
3,U26A U67C U78A,0.14
4,U26A U69A U80C,0.53
5,U26A U69C U74G,0.67
6,U26A U69C U76C A77U,0.47
7,U26A U69C U78A,0.24
8,U26A U78C C79A,1
9,U26C A28C U31A A35U U51A,0.17
10,U26C A28C U69A U72G U78C,0.13
11,U26C A28G C32U U76C U80C,0.24
12,U26C A28G C34U U48C A64U,0.15
13,U26C A28G G53U,0.25
14,U26C A28G G61A U67C,0.14
15,U26C A28G U41A G73A,0.48
16,U26C A28G U41C U48C U78A,0.23
17,U26C A28G U41G C44U A45G U74C,0.28
18,U26C A28G U58C U67C U69A U74A,0.05
19,U26C A28U A35U A47G U67C U72C,0.09
20,U26C A28U A47G A56U C62U C71A,0.09
21,U26C A28U A47G G61C U72G A77U,0.1
22,U26C A28U U41A U72C,0.12
23,U26C A28U U41C U48C,0.08
24,U26C A28U U43G,0.34

row,Variant,self-cleavage
1,U26C A28U U60C U69A,0.17
2,U26C A28U U72C,0.28
3,U26C A35G A57G U66C,0.4
4,U26C A35G A64U,0.65
5,U26C A35G A77G,1.12
6,U26C A35G G63A U69C,0.29
7,U26C A35G U41C G73A U76A,1
8,U26C A35G U49C G52A U80C,0.97
9,U26C A35G U51G A64U U72C,0.41
10,U26C A35G U72A,0.57
11,U26C A35U U41C A45G U54A U72C U78C,0.08
12,U26C A35U U49C G52C U74C,0.13
13,U26C A35U U69C U78C,0.22
14,U26C A35U U72A,0.08
15,U26C A45C A77G,0
16,U26C A45G A47U U51A,0.09
17,U26C A45G A56U,0.19
18,U26C A45G A64G U67C,0.09
19,U26C A45G C71G,0.12
20,U26C A45G U49G U54C,0.29
21,U26C A45G U49G U80C,0.26
22,U26C A45G U58A U76C A77G,0.1
23,U26C A45G U60C G63U A64G U66C,0.05
24,U26C A45G U66C U80A,0.62

row,Variant,self-cleavage
1,U26C A45G U69A A75G U78C,0.21
2,U26C A45G U69C,0.11
3,U26C A45G U72A A77U U80C,0.55
4,U26C A45U U48C U66A U76C,0.86
5,U26C A47C G53A G63A C79A,0.49
6,U26C A47G A64G,0.34
7,U26C A47G U48C U69C,0.1
8,U26C A47G U49A U60C U69A,0.05
9,U26C A47G U54A U72C,0.26
10,U26C A47G U54C A57G,0.07
11,U26C A47G U67C,0.16
12,U26C A47U U54C C62U,0.25
13,U26C A56C A77U,0.46
14,U26C A56G U58C,0.18
15,U26C A56G U67C U69A,0.38
16,U26C A56G U69C,0.31
17,U26C A56G U80A,0.37
18,U26C A56U A57G U76A,0.12
19,U26C A57G U60C,0.37
20,U26C A57G U67A,0.2
21,U26C A57U A75U,0.18
22,U26C A57U U78C,0.12
23,U26C A64G U67C U69C,0.15
24,U26C A64G U72C C81A,0.09

row,Variant,self-cleavage
1,U26C A64G U72C U76C,0.23
2,U26C A64U C68A,0.35
3,U26C A64U U76A,0.1
4,U26C C27G U41C U49A U51C U69C,0.06
5,U26C C27U A65G U67C C79G,0.11
6,U26C C27U G33A U43C U51G,0.2
7,U26C C27U U54C U67A,0.16
8,U26C C29A A35G U58C G63A U80C,0.19
9,U26C C29U C62U,0.12
10,U26C C32G U48C U60A U67A C81U,0.07
11,U26C C32U U43C A45G U60A,0.1
12,U26C C34U G63A,0.2
13,U26C C37U C44A A45U A64G G70A,0.05
14,U26C C37U U51C,0.17
15,U26C C37U U54A,0.32
16,U26C C38A A45G U72A,0.06
17,U26C C39A U41A U49C,0.14
18,U26C C39G A45G,0.22
19,U26C C40G U41C,0.14
20,U26C C40U A64G,0.26
21,U26C C40U A65G U67C,0.12
22,U26C C40U G42C U58C,0.15
23,U26C C40U U43C A47G U76C U78C,0.07

# Reference: the RNAGym collection of RNA variant scans (doi:10.1093/nar/gkz1192)
